Substitutions are numbered along the chain they refer to; changes in the protein carry UniProt numbers. Some of the results follow.
B1: GAAAUCC (DNA:RNA)
RNA: GGGAGACCGGAAUUCAGAUUGUCCGAAAUCCUUAAAUCCCGUCGUAGCCACCA
DNA 1: CAATCTGAATTCCGGTCTCCC
DNA 2: TGGTGGCTACGACGGGATT
B2: UAGCGAU (DNA:RNA)
RNA: B1 RNA with G25U, A27G, A28C, U29G, C30A, C31U
DNA 1: CAATCTGAATTCCGGTCTCCC
DNA 2: TGGTGGCTACGACGGGATT
B3: UCGCUGG (DNA:RNA)
RNA: B1 RNA with G25U, A26C, A27G, A28C, C30G, C31G
DNA 1: CAATCTGAATTCCGGTCTCCC
DNA 2: TGGTGGCTACGACGGGATT
B4: CACAUUC (DNA:RNA)
RNA: B1 RNA with G25C, A27C, C30U
DNA 1: CAATCTGAATTCCGGTCTCCC
DNA 2: TGGTGGCTACGACGGGATT
B5: GAGGACA (DNA:RNA)
RNA: B1 RNA with A27G, A28G, U29A, C31A
DNA 1: CAATCTGAATTCCGGTCTCCC
DNA 2: TGGTGGCTACGACGGGATT
B6: UGUUUGU (DNA:RNA)
RNA: B1 RNA with G25U, A26G, A27U, A28U, C30G, C31U
DNA 1: CAATCTGAATTCCGGTCTCCC
DNA 2: TGGTGGCTACGACGGGATT
B7: GAGUGAG (DNA:RNA)
RNA: B1 RNA with A27G, A28U, U29G, C30A, C31G
DNA 1: CAATCTGAATTCCGGTCTCCC
DNA 2: TGGTGGCTACGACGGGATT
B8: CCAAGUG (DNA:RNA)
RNA: B1 RNA with G25C, A26C, U29G, C30U, C31G
DNA 1: CAATCTGAATTCCGGTCTCCC
DNA 2: TGGTGGCTACGACGGGATT
B9: GCAUGGG (DNA:RNA)
RNA: B1 RNA with A26C, A28U, U29G, C30G, C31G
DNA 1: CAATCTGAATTCCGGTCTCCC
DNA 2: TGGTGGCTACGACGGGATT
B10: UGUCUAC (DNA:RNA)
RNA: B1 RNA with G25U, A26G, A27U, A28C, C30A
DNA 1: CAATCTGAATTCCGGTCTCCC
DNA 2: TGGTGGCTACGACGGGATT
B11: ACCCAGU (DNA:RNA)
RNA: GGGAGACCGGAAUUCAGAUUGUCCACCCAGUUUAAAUCCCGUCGUAGCCACCA
DNA 1: CAATCTGAATTCCGGTCTCCC
DNA 2: TGGTGGCTACGACGGGATT
B12: UUUAGAU (DNA:RNA)
RNA: B11 RNA with A25U, C26U, C27U, C28A, A29G, G30A
DNA 1: CAATCTGAATTCCGGTCTCCC
DNA 2: TGGTGGCTACGACGGGATT
B13: GAGCAGG (DNA:RNA)
RNA: B11 RNA with A25G, C26A, C27G, U31G
DNA 1: CAATCTGAATTCCGGTCTCCC
DNA 2: TGGTGGCTACGACGGGATT
B14: UACAUAA (DNA:RNA)
RNA: B1 RNA with G25U, A27C, C30A, C31A
DNA 1: CAATCTGAATTCCGGTCTCCC
DNA 2: TGGTGGCTACGACGGGATT
B15: CGGCUCC (DNA:RNA)
RNA: B1 RNA with G25C, A26G, A27G, A28C
DNA 1: CAATCTGAATTCCGGTCTCCC
DNA 2: TGGTGGCTACGACGGGATT
B16: AAGAUUA (DNA:RNA)
RNA: B1 RNA with G25A, A27G, C30U, C31A
DNA 1: CAATCTGAATTCCGGTCTCCC
DNA 2: TGGTGGCTACGACGGGATT
B17: CAUCAUG (DNA:RNA)
RNA: B11 RNA with A25C, C26A, C27U, G30U, U31G
DNA 1: CAATCTGAATTCCGGTCTCCC
DNA 2: TGGTGGCTACGACGGGATT
B18: CUGCUCC (DNA:RNA)
RNA: B1 RNA with G25C, A26U, A27G, A28C
DNA 1: CAATCTGAATTCCGGTCTCCC
DNA 2: TGGTGGCTACGACGGGATT
B19: CGAUCAA (DNA:RNA)
RNA: B1 RNA with G25C, A26G, A28U, U29C, C30A, C31A
DNA 1: CAATCTGAATTCCGGTCTCCC
DNA 2: TGGTGGCTACGACGGGATT
B20: GCCGGCG (DNA:RNA)
RNA: B11 RNA with A25G, C28G, A29G, G30C, U31G
DNA 1: CAATCTGAATTCCGGTCTCCC
DNA 2: TGGTGGCTACGACGGGATT
B21: CGGACCG (DNA:RNA)
RNA: B1 RNA with G25C, A26G, A27G, U29C, C31G
DNA 1: CAATCTGAATTCCGGTCTCCC
DNA 2: TGGTGGCTACGACGGGATT
B22: GCGAGAG (DNA:RNA)
RNA: B1 RNA with A26C, A27G, U29G, C30A, C31G
DNA 1: CAATCTGAATTCCGGTCTCCC
DNA 2: TGGTGGCTACGACGGGATT
B23: UCUCUAA (DNA:RNA)
RNA: B11 RNA with A25U, C27U, A29U, G30A, U31A
DNA 1: CAATCTGAATTCCGGTCTCCC
DNA 2: TGGTGGCTACGACGGGATT
B24: GGUUGGA (DNA:RNA)
RNA: B11 RNA with A25G, C26G, C27U, C28U, A29G, U31A
DNA 1: CAATCTGAATTCCGGTCTCCC
DNA 2: TGGTGGCTACGACGGGATT
B25: CCAAAAC (DNA:RNA)
RNA: B1 RNA with G25C, A26C, U29A, C30A
DNA 1: CAATCTGAATTCCGGTCTCCC
DNA 2: TGGTGGCTACGACGGGATT
B26: UGCUGCA (DNA:RNA)
RNA: B11 RNA with A25U, C26G, C28U, A29G, G30C, U31A
DNA 1: CAATCTGAATTCCGGTCTCCC
DNA 2: TGGTGGCTACGACGGGATT
B27: AGCAUAU (DNA:RNA)
RNA: B11 RNA with C26G, C28A, A29U, G30A
DNA 1: CAATCTGAATTCCGGTCTCCC
DNA 2: TGGTGGCTACGACGGGATT
B28: CGUGCUC (DNA:RNA)
RNA: B1 RNA with G25C, A26G, A27U, A28G, U29C, C30U
DNA 1: CAATCTGAATTCCGGTCTCCC
DNA 2: TGGTGGCTACGACGGGATT
B29: ACGUCGC (DNA:RNA)
RNA: B11 RNA with C27G, C28U, A29C, U31C
DNA 1: CAATCTGAATTCCGGTCTCCC
DNA 2: TGGTGGCTACGACGGGATT
B30: AGAGAGG (DNA:RNA)
RNA: B11 RNA with C26G, C27A, C28G, U31G
DNA 1: CAATCTGAATTCCGGTCTCCC
DNA 2: TGGTGGCTACGACGGGATT
B31: GAAAGAC (DNA:RNA)
RNA: B1 RNA with U29G, C30A
DNA 1: CAATCTGAATTCCGGTCTCCC
DNA 2: TGGTGGCTACGACGGGATT

Target: T1, RBFOX1 RRM (Homo sapiens, UniProt Q9NWB1 109-208)
T1 sequence: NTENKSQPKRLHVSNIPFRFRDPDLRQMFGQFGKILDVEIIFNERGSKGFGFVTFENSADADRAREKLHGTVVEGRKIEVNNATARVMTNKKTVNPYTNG
Test: EMSA; HiTS-Eq, 1 nM pool, 10 min; buffer printed only for the single-RNA assays: 10 mM Tris pH 7.5, 150 mM NaCl, 3.4 mM EDTA, 0.001% NP-40, 30 C
Conditions: tags: His6 N-terminal (pET28a); label: 5' 32P
Method in brief: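 Purified RbFox RRM (wild type or mutant) was equilibrated for 10 min in 50 µL with 1 nM of a 5′-radiolabelled pool of RNA with 7 randomized nucleotides, its flanks annealed to DNA oligonucleotides, across increasing protein concentrations. Free RNA was separated by 8% native PAGE, excised, reverse-transcribed, PCR-barcoded and sequenced on an Illumina HiSeq 2500. Relative association constants came from read-count changes of each variant against the control reaction, normalised to the cognate motif.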

Question: B1 was tested. Which binding signal did it give?
Answer: The binding signal was 0.00369 KA relative to UGCAUGU.

Question: For B2, which binding signal is on record?
Answer: Its binding signal is 0.0103 KA relative to UGCAUGU.

Question: With B3 as the binder, how does the binding signal read?
Answer: The binding signal was 0.0219 KA relative to UGCAUGU.

Question: B4 was tested. Which binding signal did it give?
Answer: The binding signal was 0.00143 KA relative to UGCAUGU.

Question: Which binding signal does the source give for B5 here?
Answer: Its binding signal is 0.00218 KA relative to UGCAUGU.

Question: B6 was tested. Which binding signal did it give?
Answer: Its binding signal is 0.0434 KA relative to UGCAUGU.

Question: Which binding signal does the source give for B7 here?
Answer: Its binding signal is 0.0102 KA relative to UGCAUGU.

Question: B8 was tested. Which binding signal did it give?
Answer: Its binding signal is 0.00535 KA relative to UGCAUGU.

Question: For B9, which binding signal is on record?
Answer: The binding signal was 0.0735 KA relative to UGCAUGU.

Question: With B10 as the binder, how does the binding signal read?
Answer: Its binding signal is 0.0108 KA relative to UGCAUGU.

Question: B11 was tested. Which binding signal did it give?
Answer: The binding signal was 0.00233 KA relative to UGCAUGU.

Question: B12 was tested. Which binding signal did it give?
Answer: The binding signal was 0.0157 KA relative to UGCAUGU.

Question: Which binding signal does the source give for B13 here?
Answer: Its binding signal is 0.0152 KA relative to UGCAUGU.

Question: B14 was tested. Which binding signal did it give?
Answer: Its binding signal is 0.00163 KA relative to UGCAUGU.

Question: Which binding signal does the source give for B15 here?
Answer: Its binding signal is 0.0203 KA relative to UGCAUGU.

Question: With B16 as the binder, how does the binding signal read?
Answer: Its binding signal is 0.00246 KA relative to UGCAUGU.

Question: How did the binding signal turn out when B17 was run?
Answer: The binding signal was 0.00476 KA relative to UGCAUGU.

Question: How did the binding signal turn out when B18 was run?
Answer: The binding signal was 0.0136 KA relative to UGCAUGU.

Question: With B19 as the binder, how does the binding signal read?
Answer: The binding signal was 0.00365 KA relative to UGCAUGU.

Question: With B20 as the binder, how does the binding signal read?
Answer: Its binding signal is 0.0178 KA relative to UGCAUGU.

Question: B21 was tested. Which binding signal did it give?
Answer: The binding signal was 0.0268 KA relative to UGCAUGU.

Question: Which binding signal does the source give for B22 here?
Answer: The binding signal was 0.0145 KA relative to UGCAUGU.

Question: Which binding signal does the source give for B23 here?
Answer: The binding signal was 0.00421 KA relative to UGCAUGU.

Question: B24 was tested. Which binding signal did it give?
Answer: The binding signal was 0.00246 KA relative to UGCAUGU.

Question: How did the binding signal turn out when B25 was run?
Answer: The binding signal was 0.00112 KA relative to UGCAUGU.

Question: With B26 as the binder, how does the binding signal read?
Answer: The binding signal was 0.0343 KA relative to UGCAUGU.

Question: With B27 as the binder, how does the binding signal read?
Answer: The binding signal was 0.00485 KA relative to UGCAUGU.

Question: With B28 as the binder, how does the binding signal read?
Answer: Its binding signal is 0.0133 KA relative to UGCAUGU.

Question: Which binding signal does the source give for B29 here?
Answer: Its binding signal is 0.00978 KA relative to UGCAUGU.

Question: With B30 as the binder, how does the binding signal read?
Answer: The binding signal was 0.0144 KA relative to UGCAUGU.

Question: How did the binding signal turn out when B31 was run?
Answer: The binding signal was 0.00724 KA relative to UGCAUGU.
